Source: PubChem BioAssay AID463173 (ICCB-Longwood Screening Facility, Harvard Medical School, 2010)
Out of some 52,000 compounds screened, about 4,300 (8.3%) were called active. Cut-off read from the data, not from the text of the source: active = survival mostly below about 52% (no sharp cut-off); inactive = mostly above about 56%. The list shows a part of the results.

These compounds were tested on DeltatarO mutant (assay: S. aureus survival, RN4220 and DeltatarO strains – OD600, teichoic acid synthesis inhibitors, primary screen (AID 463173)). Conditions: S. aureus RN4220 wild type/DeltatarO growth, OD600, 18 h, hits give low values, screened at 18.75 µg/mL (by protocol).

| SMILES | survival |
| --- | --- |
| C=CCN1C(=O)C2(C(C#N)=C(N)Oc3n[nH]c(COC)c32)c2ccccc21 (stereo unspecified) | inactive: 109% |
| Cc1nc2ccc(S(=O)(=O)NCC(=O)Nc3ccc(C)c(Cl)c3)cc2s1 | inactive: 63% |
| O=S(=O)(c1ccc(Cl)cc1)N1CCC(c2ccncc2)CC1 | inactive: 73% |
| O=C(Nc1nnc(S(=O)(=O)N2CCOCC2)s1)c1cccc(Br)c1 | active: 42% |
| Cc1nc2c(C(=O)NCCc3ccccc3)c[nH]n2c(=O)c1Cc1ccccc1F | active: -13% |
| COc1cccc(C(=O)Nc2ccc(C(=O)OCc3cc(=O)n4cc(C)sc4n3)cc2)c1 | inactive: 66% |
| NC(=O)Cn1c(-c2nonc2N)nc2ccccc21 | active: 62% |
| COc1cc(NS(=O)(=O)c2cc3c(cc2C)n(C)c(=O)c(=O)n3C)cc(OC)c1 | inactive: 68% |
| Cc1nc2sccn2c(=O)c1S(=O)(=O)N1CCN(c2ccc(F)cc2)CC1 | inactive: 74% |
| COc1ccc(CCNC(=O)CSc2nc3ccccc3nc2Cc2ccc(Cl)cc2)cc1OC | active: 37% |
| Cc1cccc(NS(=O)(=O)c2ccc(Cl)c(C(=O)Nc3ccccc3C)c2)c1 | inactive: 71% |
| CC(C)Cn1c(-c2ccc(S(=O)(=O)N3CCCC3)cc2)csc1=Nc1ccccc1 | inactive: 58% |
| CCCN(Cc1cccs1)C(=O)Nc1ccc(Br)c(C)c1 | inactive: 57% |
| Cc1ccc(-n2c(=O)c3c(cnn3C)n(CC(=O)Nc3cc(C)ccc3C)c2=O)cc1 | inactive: 85% |
| Cc1ccc(C(=O)c2cn(Cc3cccc(F)c3)c3nc(C)ccc3c2=O)cc1 | inactive: 78% |
| Cc1ccc(NC(=O)Cn2cc(C(=O)c3cccs3)c3ccccc32)cc1C | inactive: 74% |
| COc1ccc(C(=O)NCc2ccc3c(c2)CCN3C(=O)c2cccc(C)c2)cc1OC | inactive: 119% |
| CCn1c(SCC(=O)N(C2CCCCC2)C2CCCCC2)nnc1C(C)C | inactive: 103% |
| O=C(CCn1cccn1)Nc1cccc(C(F)(F)F)c1 | inactive: 70% |
| Cc1oc2ncnc(N3CCOCC3)c2c1C(=O)NCc1ccccc1 | inactive: 91% |
| CN1CCN(Cc2c(O)ccc3cc(-c4ccccc4)c(=O)oc23)CC1 | inactive: 105% |
| CCOc1ccc(-c2cc(C(=O)NCc3ccc(OC)cc3)c3c(-c4ccc(F)cc4)[nH]nc3n2)cc1 | inactive: 77% |
| O=C(NCc1ccco1)c1cc(-c2ccccc2)on1 | inactive: 85% |

| SMILES | survival |
| --- | --- |
| CCCOc1ccc(NC(=O)CC2C(=O)N(c3cccc(C)c3)C(=O)N2CCc2ccncc2)cc1 (stereo unspecified) | inactive: 107% |
| COc1ccc(Nc2nc3c(S(=O)(=O)c4ccccc4)nnn3c3ccc(Cl)cc23)cc1OC | inactive: 117% |
| CCOC(=O)c1cccc(NC(=O)c2cc3c(=O)n(Cc4cccnc4)ccc3nc2C)c1 | inactive: 118% |
| Cc1cccc(-c2nc(N3CCN(c4ccc(F)cc4)CC3)c3ccccc3n2)c1 | inactive: 54% |
| CCCCOc1ccccc1NC(=O)Cn1c(-c2cncs2)nc2ccccc21 | active: 49% |
| COc1ccc(OC)c(-n2cnc3cc(C(=O)NC4CCCC4)ccc32)c1 | inactive: 96% |
| O=C(Nc1nnc(S(=O)(=O)N2CCCC2)s1)c1ccc(F)cc1 | inactive: 111% |
| O=C(NC1CC(=O)N(c2ccccc2)C1)c1cc2ccccc2o1 (stereo unspecified) | inactive: 89% |
| Cc1oc(-c2ccccc2)nc1CNS(=O)(=O)c1ccc(Cl)cc1 | inactive: 85% |
| O=C(O)c1ccccc1C1=Nc2ccc(O)cc2Oc2cc(O)ccc21 | inactive: 89% |
| Cc1ccc(-n2ncc3c(NCCCn4ccnc4)ncnc32)cc1 | inactive: 79% |
| CC1CCCC(C)N1C(=O)CN1CCC(N2CCCCC2)CC1 (stereo unspecified) | inactive: 94% |
| Cc1ccc(NC(=O)c2cc(-c3cccs3)on2)cc1C | active: 45% |
| CCN1CCN(CCCNC(=O)c2cnn(-c3ccc(C)cc3)c2C2CCN(C(=O)OC(C)(C)C)CC2)CC1 | inactive: 86% |
| CCCCCn1c(=O)[nH]c2cc(C(=O)N3CCN(c4ccccc4F)CC3)ccc2c1=O | inactive: 87% |
| COc1cc(-c2nc3cccc(C)n3c2Nc2ccc3c(c2)OCCO3)ccc1O | inactive: 76% |
| COc1ccccc1CNC(=O)c1cccc(NC(=O)N2CCSc3ncccc32)c1 | inactive: 78% |
| CCCCOC(=O)c1ccc(NC(=O)CSc2nc3c(c(=O)[nH]2)CCC3)cc1 | inactive: 55% |
| CC(=O)c1ccc(N2CCN(c3ncnc4onc(-c5ccc(Cl)cc5)c34)CC2)cc1 | inactive: 74% |
| NC(=O)CC1SC(N)=NC1=O (stereo unspecified) | inactive: 80% |
| CCc1c(C)nc2[nH]nc(NC(=O)C(F)(F)F)n2c1=O | inactive: 101% |
| COc1cc(N(C(=O)c2cnccn2)C(C(=O)NCc2ccccc2)c2cccs2)ccc1-n1cnnn1 (stereo unspecified) | inactive: 100% |
| Cc1c(C(=O)NCc2ccc(F)cc2)sc2nc(-c3ccccc3)cn12 | inactive: 100% |

| SMILES | survival |
| --- | --- |
| Cc1nnc(N2C(=O)c3oc4ccccc4c(=O)c3C2c2ccc(F)cc2)s1 (stereo unspecified) | inactive: 63% |
| COC(=O)c1c(-c2ccc(Cl)cc2)noc1N1CCN(c2cccc(OC)c2)CC1 | inactive: 83% |
| CCOc1ccccc1C(=O)NCC(c1ccc(N(C)C)cc1)N1CCc2ccccc21 (stereo unspecified) | inactive: 102% |
| Oc1c(C(c2ccc(Cl)cc2)N2CCCC2)sc2nc(-c3ccco3)nn12 (stereo unspecified) | inactive: 49% |
| CN(C(=O)c1cnn2c(C(F)F)cc(-c3ccccc3)nc12)C1CCCCC1 | inactive: 84% |
| COc1ccc(S(=O)(=O)NCCS(=O)(=O)N2CCN(c3ccccc3F)CC2)cc1 | inactive: 117% |
| COc1cccc(-n2c(SCC(=O)Nc3ccc(F)cc3F)nc3c([nH]c4ccccc43)c2=O)c1 | inactive: 99% |
| Cc1sc2ncn(C(C)C(=O)OC3CCCCC3)c(=O)c2c1C (stereo unspecified) | inactive: 91% |
| O=C(NCc1ccccc1)C1CCC(CNS(=O)(=O)c2ccc(Br)s2)CC1 (stereo unspecified) | inactive: 77% |
| CC1CCc2nn(CC(=O)Nc3cccc(C(F)(F)F)c3)c(=O)cc2C1 (stereo unspecified) | inactive: 98% |
| COc1cc(NC(=O)Cn2c(=O)n(C(C)C)c(=O)c3oc4ccccc4c32)cc(OC)c1 | active: 47% |
| Cn1c(C(=O)NCc2ccc3c(c2)OCO3)cc2sccc21 | inactive: 88% |
| O=C(Nc1cccnc1Cl)c1cc(-c2ccc(Cl)cc2)on1 | inactive: 57% |
| CCc1ccccc1N1CC(c2nc3ccccc3n2Cc2cccc(C)c2)CC1=O (stereo unspecified) | inactive: 66% |
| O=C(Nc1sc2c(c1C(=O)NCc1ccccc1)CCCC2)c1cc(=O)c2cc(Cl)ccc2o1 | inactive: 49% |
| N#Cc1ccccc1Cn1nnc2c(=O)[nH]c(C3CCCN(S(=O)(=O)c4ccc(F)cc4)C3)nc21 (stereo unspecified) | inactive: 101% |
| O=C(Nc1nc2nc(-c3ccccc3)cc(=O)n2[nH]1)c1ccc(F)cc1 | inactive: 68% |
| COc1ccc(CNc2ccc(C)c(C)c2)c(OC)c1OC | inactive: 93% |
| Cc1ccc(N2C(=O)CC(N3CCc4ccccc43)C2=O)cc1Cl (stereo unspecified) | inactive: 84% |
| CCOc1ccccc1N1CC(c2nc3ccccc3n2CCCOc2ccccc2OC)CC1=O (stereo unspecified) | inactive: 76% |
| CC(C)n1c(=S)[nH]c2c1c(=O)[nH]c(=O)n2C | inactive: 64% |
| CC1(C)OC(=O)C(=Cc2ccc(-c3ccc(S(N)(=O)=O)cc3)o2)C(=O)O1 | inactive: 82% |
| CC(=O)c1ccc(NC(=O)CCc2c(C)nn(-c3ccc4nncn4n3)c2C)cc1 | inactive: 91% |

| SMILES | survival |
| --- | --- |
| CCOc1ccc(CCNS(=O)(=O)c2c(C)nc3sc(C)cn3c2=O)cc1OCC | inactive: 58% |
| CSc1ccc(CCNC(=O)c2cc3n(n2)CCCN(Cc2ccc(C)cc2)C3=O)cc1 | inactive: 80% |
| CC(C)(C)C(=O)NC1CCN(CC(=O)N2CCCCCC2)CC1 | inactive: 101% |
| CCC1CN(C(=O)N2CCC(C(=O)NCCOC)CC2)c2ccccc2O1 (stereo unspecified) | inactive: 86% |
| Cc1ccc(NC(=O)CCS(=O)(=O)c2ccc3nc(C)sc3c2)cc1 | active: 34% |
| CCc1ccc(NC(=O)Cn2nnc(C(=O)NCc3ccco3)c2N)cc1 | inactive: 95% |
| Cc1ccccc1C(=O)Nc1nnc(SCc2cc(=O)c3c(C)ccc(C)c3[nH]2)s1 | inactive: 102% |
| CC1CCN(S(=O)(=O)c2cc(C(=O)NCc3ccc(F)cc3)n(C)c2)CC1 | inactive: 80% |
| O=C1C(c2ccc(F)cc2)N(CCc2ccccc2)C(=O)CN1C1CCCCC1 (stereo unspecified) | inactive: 82% |
| CNC(=O)c1cc2n(n1)CCCN(Cc1ccc(F)cc1)C2=O | inactive: 73% |
| CC(C)c1ccc(C(=O)Nc2cccc3cccnc23)cc1 | active: -1% |
| COc1ccc(CN(C(=O)Nc2ccc(C)c(F)c2)C2CCN(C(C)=O)CC2)cc1 | inactive: 89% |
| CCSc1nnc(-c2ccc(S(=O)(=O)N3CCOCC3)cc2)n1C | inactive: 83% |
| COc1ccc(Cl)cc1Nc1ncnc2c1nc1n2CCCC1 | inactive: 88% |
| O=C(CCS(=O)(=O)c1cc2c3c(c1)CCN3C(=O)CC2)NCc1ccc(F)cc1 | inactive: 91% |
| CC(C)c1ccc(NC(=O)C2CCCN(S(=O)(=O)c3cccc4nonc34)C2)cc1 (stereo unspecified) | inactive: 82% |
| O=C(Nc1noc2ccccc12)c1cccc(F)c1 | inactive: 95% |
| CCc1ccc(NC(=O)C2CCCN(S(=O)(=O)c3c(C)[nH]c(=O)[nH]c3=O)C2)cc1 (stereo unspecified) | inactive: 83% |
| CC(C)c1ccc(NS(=O)(=O)c2ccc3[nH]c(=O)ccc3c2)cc1 | inactive: 83% |
| CCOC(=O)Cc1nnc2c(Nc3ccccc3OC)nc3nonc3n12 | inactive: 99% |
| Cc1cc(C)c(NC(=O)Cn2c(=O)n(CCC(=O)NCc3ccc4c(c3)OCO4)c(=O)c3ccccc32)c(C)c1 | inactive: 94% |
| CCOc1ccc(S(=O)(=O)Nc2ccc3c(c2)c(C(C)=O)c(C)n3S(=O)(=O)c2ccc(OCC)cc2)cc1 | inactive: 67% |
